This passage reports inhibition results from PubChem BioAssay AID485344 (National Center for Advancing Translational Sciences (NCATS), 2010).

One may read the inhibition as the change of the read-out against control, counted positive when it falls.

The whole screen tested about 340,000 compounds, of which about 6,900 (2%) were called active. Rule as the data show it: active = inhibition above about 30%; inactive = below that, where a call was filed. The entries are a selection whose mix differs from that of the whole data set. The source gives no active or inactive call for entries shown without one.

In this assay the target is D(2) dopamine receptor (Homo sapiens) (UniProt P14416). The assay can be described thus: HTS Assay for Allosteric Antagonists of the Human D2 Dopamine Receptor: Primary Screen for Antagonists. Also: 0% is about no effect. Conditions: HEK293 TREx D2 cells, calcium flux, dopamine EC80; at 10 µM; stronger effect = higher value. The method, boiled down: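 Cells plated overnight at 30 C with tetracycline; no-wash calcium dye, 30–90 min RT; 10 s baseline; compound pinned; 180 s read; EC80 dopamine added; another 180 s read.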
Sequence of UniProt P14416 (P14416 whole entry, looked up): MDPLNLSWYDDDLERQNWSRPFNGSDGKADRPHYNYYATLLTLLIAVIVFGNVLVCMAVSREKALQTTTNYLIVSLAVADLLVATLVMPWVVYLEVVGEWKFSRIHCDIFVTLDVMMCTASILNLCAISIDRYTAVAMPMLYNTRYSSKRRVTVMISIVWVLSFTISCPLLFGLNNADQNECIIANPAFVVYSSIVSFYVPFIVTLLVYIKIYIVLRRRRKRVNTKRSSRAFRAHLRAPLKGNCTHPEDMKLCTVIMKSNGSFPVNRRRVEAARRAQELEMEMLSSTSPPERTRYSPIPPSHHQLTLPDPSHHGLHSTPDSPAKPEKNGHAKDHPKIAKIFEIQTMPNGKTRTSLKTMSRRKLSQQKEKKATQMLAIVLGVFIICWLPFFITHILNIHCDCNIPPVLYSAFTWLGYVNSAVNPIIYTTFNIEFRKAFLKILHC
Consider `COc1ccc2c(c1)-c1nc(NC(=O)c3cc(OC)c(OC)c(OC)c3)sc1CC2`, for which the inhibition was -0.605%. Take `O=c1[nH]c(C2CCCN(S(=O)(=O)c3ccccc3)C2)nc2c1nnn2Cc1ccc(OC(F)(F)F)cc1` (stereo unspecified): the inhibition is -21%.

On to `O=C(C1CCC(Cn2c(=O)c3sccc3n(Cc3ccc(F)cc3)c2=O)CC1)N1CCOCC1` (stereo unspecified), for which the inhibition was -16.6%. For `CN1C(=O)c2[nH]nc(-c3ccc(F)cc3)c2C1c1cccc(O)c1` (stereo unspecified) the value was -10.4%. The value for `Cn1cc(-c2cc3n(n2)CCC(=O)N3CCCC(=O)NCc2ccccc2Cl)c2ccccc21` was -10%; that for `Cc1cc(C)cc(Nc2nc3cc(Cl)c(Cl)cc3nc2-n2nc(C)cc2C)c1` was -0.917%; that for `CC(C)CCn1c(SCc2cccc(F)c2)nc2ccsc2c1=O` was -7.86%. For `CCOC(=O)c1cccc(NC(=O)[C@H](CSCc2ccccc2)N2Cc3ccccc3C2=O)c1` the value was -10.1%. As to `CCOC(=O)c1c(NC(=O)c2ccc(F)cc2)sc2c1CCC(CC)C2` (stereo unspecified), the inhibition is -18.9%. For `CCOc1ccc(-c2nc3ccccc3c(=O)o2)cc1` the value was 0.164%; for `C#CC(C)(CC)NC(=O)Cn1nnc(-c2ccc(OCc3c(F)cccc3Cl)cc2)n1` (stereo unspecified), 3.87%; for `COc1cc(NC(=O)CN(c2cc(C)cc(C)c2)S(=O)(=O)c2c(C)[nH]c(=O)[nH]c2=O)cc(OC)c1`, -8.05%. For `Cc1ccc(-n2c(=O)c3ccc(C(=O)NCc4ccccc4Cl)cc3n(CC(=O)Nc3ccc(C)cc3C)c2=O)cc1`, the inhibition is -7.21%. The value for `O=C(CSc1ncc2c(n1)-c1ccccc1N(Cc1ccc(F)cc1)S2(=O)=O)NCCc1ccccc1` was 2.3%; that for `Cc1ccccc1C(=O)NCCc1sc(-c2ccc(Cl)cc2)nc1C` was 17.8%.

Consider `COc1ccc(CNC(=O)Cc2csc3nc(-c4ccc(F)cc4)cn23)cc1`, for which the inhibition is -14.6%. Take `Cc1[nH]n2c(=O)c3c(nc2c1-c1ccc(Cl)cc1)CCC3`: the inhibition is active: 74.8%. For `COc1ccc(-c2nc(SCC(=O)NC3CCCC3)c(-c3ccc(C)cc3)[nH]2)cc1OC` the value was 15.1%; for `CCOc1ccc(NC(=O)C(=O)NCC(c2cccnc2)N2CCc3ccccc32)cc1` (stereo unspecified), -0.149%; for `COc1ccc(C2CC(=O)N(CC(=O)Nc3ccc(C)c(Cl)c3)c3ccccc3S2)cc1OC` (stereo unspecified), 12.2%.

On to `CCOC(=O)C1CCCN(S(=O)(=O)c2ccc3c(c2)oc(=O)n3C)C1` (stereo unspecified), for which the inhibition is 13.9%.

Consider `COc1ccc(N(Cc2cccs2)C(=O)Nc2cccc(Cl)c2)cc1`, for which the inhibition stood at 10.1%. The value for `COc1cccc(NC(=O)CCc2c(C)nc3ncnn3c2C)c1` was -19.4%; that for `Cc1ccccc1NC(=O)CCN1C(=O)c2ccccc2Sc2ncccc21` was 20.2%; that for `COc1ccc(CNC(=O)c2cnc3sc(N4CCCC4)nn3c2=O)c(OC)c1` was 9.89%. Take `CCc1ccc(Nc2nnc(-n3nc(C)cc3C)c3ccccc23)cc1`: the inhibition turned out to be 19.3%.

Take `CCCCNC(=O)CSc1nc2cc3c(cc2c(=O)n1CCCCCC(=O)NCc1ccc(OC)cc1)OCO3`: the inhibition is 21.8%. Regarding `Cc1ccc(NC(=O)CN2C(=O)COc3ccc(S(=O)(=O)NC4CCCC4)cc32)c(Cl)c1`, the inhibition worked out at 1.81%. On to `CCOC(=O)c1ccc(NC(=O)N2CCN(Cc3ccccc3)CC2)cc1`, for which the inhibition is active: 43.6%. As to `Clc1cccc(N2CCN(CCNc3nc4ccccc4n4cnnc34)CC2)c1`, the inhibition was active: 41.8%.

`COc1ccc(-c2cn3c(n2)sc2cc(C(=O)NCc4cccc(F)c4)ccc23)cc1`: the inhibition is 5.26%. For `Cc1ccc(NC(=O)Cn2c(=O)n(Cc3ccc4c(c3)OCO4)c(=O)c3ccccc32)cc1` the value was -13.9%; for `Cc1ccccc1-c1cc2nccc(-c3cc(Cl)ccc3O)n2n1`, -8.08%; for `Cc1ccc(C(=O)c2cn(Cc3ccccc3C)c3nc(C)ccc3c2=O)cc1`, -3.78%.

With `CCCc1cnc2c(c1SCc1cccc(F)c1)c(=O)n(C)c(=O)n2C`, the inhibition was -3.06%. For `Cc1oc2c(cc(NS(=O)(=O)c3ccc(Cl)cc3)c3ccccc32)c1C(=O)OCc1ccccc1` the value was -4.61%.

`CCn1c(=N)n(CC(O)COc2ccccc2)c2ccccc21` (stereo unspecified): the inhibition was -16.1%. With `Cn1c(=O)c2cc(C(=O)NC3CCCCCC3)sc2c2ccccc21`, the inhibition is -15.5%. `c1ccc(N2CCN(CC3CCCCC3)CC2)cc1`: the inhibition is active: 68.2%. Turning to `CC(C)(C)C(=O)COC(=O)CCc1nc2ccccc2[nH]c1=O`, the inhibition is active: 30.6%. The value for `O=C(Cn1ncc2c3ccccc3n(Cc3ccccc3)c2c1=O)NC1CCCCCC1` was 6.97%. Regarding `CCOc1ccc(CN2CCc3nc(N4CCN(c5ccccn5)CC4)ncc3C2)cc1OC`, the inhibition is 10.5%. For `COc1ccc(NC(=O)C(CC(C)C)NC(=O)C2CCCCC2)cc1` (stereo unspecified) the value was 6.37%. The value for `COc1ccccc1NC(=O)Cn1c(=O)n(-c2cccc(C)c2)c(=O)c2c1c1cc(C)ccc1n2C` was 3.07%; that for `COc1cccc(OCCNCc2ccccc2)c1` was active: 41.1%. As to `COc1ccc(N(Cc2nnc3n2CCCCC3)C(=O)Nc2cccc(C)c2)cc1Cl`, the inhibition is 0.384%. Consider `COc1ccccc1CN1CCNC(=O)C1=O`, for which the inhibition came to 10.3%. The value for `CCN(CC)CCNC(=O)c1cc(Nc2ccc(OC)c(OC)c2)nc2ccccc12` was active: 43%. On to `Cc1ccc(N2C(=O)C(Cl)=C(Nc3c(C)n(C)n(-c4ccccc4)c3=O)C2=O)cc1`, for which the inhibition is active: 32.3%.

With `CCCOc1ccc(C2C(=O)N(C3CCCCCC3)CC(=O)N2CCC2=CCCCC2)cc1OC` (stereo unspecified), the inhibition is -17.3%. For `CCOCCn1ccc2c(OCC(=O)Nc3cccc([N+](=O)[O-])c3)cccc2c1=O` the value was -15.6%. On to `Cc1ccc(NC(=O)CNCc2cccs2)c(Br)c1`, for which the inhibition was active: 31.6%. The value for `Cc1noc(/C=C/c2cccs2)c1S(=O)(=O)N1CCC(C(=O)NCc2ccc(Cl)cc2)CC1` was -0.313%; that for `COc1cccc(C(=O)Nc2ccccc2OCc2cc(=O)n3ccccc3n2)c1` was -1.86%.

Take `Cc1cccn2c(=O)c(/C=C(\C#N)c3nc4ccccc4s3)c(Oc3ccc(F)cc3)nc12`: the inhibition was -9.28%. `Cc1cc(C)c(S(=O)(=O)Nc2ccc3oc4c(c3c2)C(=O)CC(C)(C)C4)cc1C`: the inhibition is -11.7%.

As for `COc1cc(OC)c(NC(=O)c2cn(C3CCCC3)c(=O)c3c2c2ccccc2n3C)cc1Cl`, the inhibition came out at 3.35%.

For `COc1cccc(N2CCN(C(=O)c3cc4c(OC)c(OC)c(OC)cc4[nH]3)CC2)c1`, the inhibition is active: 37.8%.

In the case of `COc1cc2c(cc1OC)C(COc1ccc(F)cc1)N(C(=O)c1cccc(F)c1)CC2` (stereo unspecified), the inhibition was 21.1%. Consider `COc1ccc(-c2nnc(SCCC(=O)O)n2C)cc1OC`, for which the inhibition is active: 34.4%.

For the molecule `CN(C)CCCNC(=O)C(=O)NCC(c1ccc2c(c1)OCO2)N1CCOCC1` (stereo unspecified), the inhibition is -18.1%.

For the molecule `O=C(c1ccc(Br)cc1)N(Cc1cccs1)c1ccc(F)cc1`, the inhibition came out at 4.99%.

In the case of `COc1ccc(C(=O)Nc2ccc3nc(N4CCCCC4)cc(C)c3c2)c(OC)c1`, the inhibition came out at 5.35%.

As for `C=CCN(CC=C)CC(O)CN(c1cc([N+](=O)[O-])ccc1OC)S(=O)(=O)c1ccccc1` (stereo unspecified), the inhibition was active: 66.1%. In the case of `Cc1cn2c(=O)cc(COc3cccc(NC(=O)c4cccc(F)c4)c3)nc2s1`, the inhibition stood at 5.27%. For `CCCc1oc2ccc(NS(=O)(=O)c3ccc(OC)cc3)cc2c1C(=O)OCC` the value was 16.1%; for `COc1ccc(N2CCN(S(=O)(=O)CCNC(=O)Cc3ccc(-c4ccccc4)cc3)CC2)cc1`, 19.2%.

For `CCOc1ccccc1CNC(=O)c1cccc(NC(=O)c2nsc3ccccc23)c1`, the inhibition was -9.67%.

`Cc1ccc(C(CC(=O)Nc2ccc(C)cc2C)N2Cc3ccccc3C2=O)cc1` (stereo unspecified): the inhibition was -1.71%.

Turning to `CCOC(=O)c1c(NC(C)=O)c2c3c(sc2n1Cc1cccc(Cl)c1)CCCC3`, the inhibition amounted to 0.203%.

`COCCNC(=O)Cn1c(=O)n(-c2ccc(C)c(C)c2)c(=O)c2c3c(sc21)CCCCC3`: the inhibition was -17.6%. `CN1CCN(S(=O)(=O)c2ccc(Oc3ccc(Br)cc3F)nc2)CC1`: the inhibition was active: 33.8%. For `CCOC(=O)c1cccc(NC(=O)C2CCN(c3nnc(C)c4c(C)n(-c5ccccc5)nc34)CC2)c1` the value was 9.43%. The value for `COc1ccc(NC(=O)CN2CCN(S(=O)(=O)c3ccc(Br)cc3)CC2)cc1` was -10.8%; that for `COc1ccc(Cl)cc1NC(=O)C(C)N1Cc2ccccc2C1=O` (stereo unspecified) was -7.95%.

On to `O=C(Cn1c(SCc2cccc(F)c2)nc2ccncc21)Nc1ccc(Cl)cc1F`, for which the inhibition was -10.8%. The value for `CCOc1cc(CNC(=O)C(NS(=O)(=O)c2cccs2)C(C)C)cc(OCC)c1OCC` (stereo unspecified) was 3.69%; that for `COc1ccc(NCc2cccn2-c2nnc(N3CCOCC3)s2)c(OC)c1` was 5.79%; that for `O=C(NNc1ncnc2c1cnn2-c1ccccc1)c1ccccc1` was 10.1%. For `O=C(COc1ccc(Cl)cc1)Nc1ccc2[nH]ncc2c1` the value was active: 34.1%. For `CC(C)Sc1oc(-c2ccco2)nc1S(=O)(=O)c1ccccc1`, the inhibition is active: 32.7%. For `Cc1ccc(C(=O)Nc2nnc(SCc3cc(=O)n4ccc(C)cc4n3)s2)cc1` the value was -0.0962%; for `O=C(Cn1nc2c(cc1=O)CCCC2)NCc1ccccc1Cl`, -0.105%. The value for `O=C(CN1C(=O)COc2ccc(S(=O)(=O)N3CCCCCC3)cc21)N1CCN(c2ccccc2)CC1` was -7.79%; that for `Cc1cc(C)cc(NC(=O)Cn2nnc(C(=O)NCc3ccco3)c2N)c1` was 6.07%; that for `CCC(=O)N1c2nc(C(C)C)nn2C2(CCCCC2)[C@@H]2CCCC[C@@H]21` was 20.4%.

Turning to `CCCN(C(=O)CCn1cnc2onc(-c3ccc(F)cc3)c2c1=O)c1ccccc1C`, the inhibition was -8.68%. The value for `Cc1ccc(Cl)cc1N1CCN(C(=O)Cn2nc(C)n3c(cc4sccc43)c2=O)CC1` was -3.81%; that for `COc1cccc(CNc2ccc3c(c2)ncn3C)c1OC` was 5.26%. The value for `Cc1cc(SCC(=O)NCc2ccccc2)nc(=O)[nH]1` was -15.2%; that for `CCC(=O)N1CCc2cc(S(=O)(=O)NCCC(=O)Nc3cccc(C)c3C)ccc21` was -24.8%.

Consider `CCOc1ccccc1NC(=O)C1CCCN(S(=O)(=O)c2ccc3c(c2)CCCN3C(C)=O)C1` (stereo unspecified), for which the inhibition was -1.92%. In the case of `COc1ccc(OC)c(CCNC(=O)C(C)n2nc(C)c3c(C)n(-c4ccc(C)cc4)nc3c2=O)c1` (stereo unspecified), the inhibition turned out to be 10.1%.

Consider `CCc1ccc(S(=O)(=O)c2nnn3c2nc(Nc2cccc(C)c2C)c2sccc23)cc1`, for which the inhibition is 7.52%. Regarding `COc1cc(-c2nnc(SCC(=O)N3CCCc4ccccc43)o2)cc(OC)c1OC`, the inhibition is -2.42%.

Take `COc1ccc(N(CC(=O)Nc2ccc(Cl)cc2C)S(=O)(=O)c2ccccc2)c(OC)c1`: the inhibition was -12.7%.
